Our source for the binding signal values is article PMC12136788.

The other results are listed elsewhere or left out.

B1: chr8:93925380:93925481:+|3pUTR|ENSG00000164951|msi1|FALSE|unique (ssRNA)
RNA: GGGAGUUCUACAGUCCGACGAUCAUUUAUUUCUAAAUGUUUUGACUGGGCAUUUUUCUUUUAAUGAAAUAUGUGGACUGCUCUAGCAAACCCUAUUUUCAGCUACUAUUUGAAUAUUCUUGAACACCACCACUGAAGAGUUUCCAACAGAGGAUUGAGCAUCA
B2: chr2:88557131:88557241:-|3pUTR|ENSG00000172071|msi1|total|mutant (ssRNA)
RNA: GGGAGUUCUACAGUCCGACGAUCGAGGACAAGCCGCACAAACUGUAUAACGGUUUAUGUCCGCCGUUUUACCGUCCUAUUUGCCGCAUUCAACCGCUUUAUUCCUCCGAUGGUUCCCGGGUGGGUUUACAGCUUUUUGUACUUCAACAGAGGAUUGAGCAUCA
B3: chr2:10440579:10440691:-|3pUTR|ENSG00000115758|unk|FALSE|unique (ssRNA)
RNA: GGGAGUUCUACAGUCCGACGAUCUAACUGCAAGUUUAGCUUGAAUUAAGGGAUUUGGGGGGACCAUGUAACUUAAUUACUGCUAGUUUUGAAAUGUCUUUGUAAGAGUAGGGUCGCCAUGAUGCAGCCAUAUGGAAGACUAGGCAACAGAGGAUUGAGCAUCA
B4: chr10:99879964:99880065:-|CDS|ENSG00000107554|unk|total|mutant (ssRNA)
RNA: GGGAGUUCUACAGUCCGACGAUCCAGAUGCCCUUCAGACCCAGACUCCACCUCCCAGCCAAGGUCAGGGGACUCUGCAGAUGCCGCCCGAGAUGUAAAGCAACCCACUGCCACGCCGAGGAGCUACCGGAACUUCAGGCAUCCCAACAGAGGAUUGAGCAUCA
B5: chr2:89040223:89040519:-|CDS|ENSG00000243290|control|control|control (ssRNA)
RNA: GGGAGUUCUACAGUCCGACGAUCAUCUGUAGGAGACAGAGUCACCAUCACUUGUCGGGCGAGUCAGGGUAUUAGCAGCUGGUUAGCCUGGUAUCAGCAGAAACCAGGGAAAGCCCCUAAGCUCCUGAUCUAUGCUGCAUCCAGCAACAGAGGAUUGAGCAUCA
B6: ENSG00000198589:be:win_3201|CDS|ENSG00000198589|bound_else_gene|NA|bound_elsewhere_windowed (ssRNA)
RNA: GGGAGUUCUACAGUCCGACGAUCAACUGGCAAAGAUUCAAUGACUGUCAGUGAAGUAACUGCUUCUAUAAGUUCUCCUUCAGAAGAGGAUGCCUCAGAGAUGCCAGAAUUCUUGGAUAAAUCUAUAGUAGAGGAAGAGGAAGACAACAGAGGAUUGAGCAUCA
B7: chr8:41262032:41262394:-|3pUTR|ENSG00000104332|msi1|total|mutant (ssRNA)
RNA: GGGAGUUCUACAGUCCGACGAUCGGCCGUUCUGACCUGUUGCCAGCAGAUACACAGGACAUGGAUGAAAUUCCCGUUUCCUCCCGUUUCUUCCUGCCGUACUCCUCUUUCCGAUCCUAAGUCUCUUACAAAAGCUUUGAAUACCAACAGAGGAUUGAGCAUCA
B8: chr15:59081107:59081211:+|CDS|ENSG00000157450|unk|total|mutant (ssRNA)
RNA: GGGAGUUCUACAGUCCGACGAUCUUCUCAAAUAUCUUCUCAUGCAACAUCUCAUCCUGUGGCACCCCCACCACCAACUCACUCCGCCAGUACAGCUGCACCAAUCCCUCAGCAUCUUCCUCCUACACACCAGCCAAUUUCGCACAACAGAGGAUUGAGCAUCA
B9: chr12:18688087:18688218:-|CDS|ENSG00000139151|control|control|control (ssRNA)
RNA: GGGAGUUCUACAGUCCGACGAUCUGGUAUCCAGUUGCCUCUUACUCAUUCAUCAUCUAACAAAGGUGAUUCAUUAGUAAUUAUAGAAGUUUUUGGUGUUCCAAAUGAUCAAAUGAAGCAGCAGACUCGUGUAAUUAAAAAAAACAACAGAGGAUUGAGCAUCA
B10: chr16:3022182:3022332:+|3pUTR|ENSG00000006327|msi1|total|mutant (ssRNA)
RNA: GGGAGUUCUACAGUCCGACGAUCCCACGGGGGUCACCCUGGGGGGUCCGGGACCUAUUUUUAACACCCGGGGGCUGGCCCACCCGGAGGGCUGGCCCUAAGAUACAGACCCCCCCAACUCCCCAAAGCGGGGAGGAGAUAUUUCAACAGAGGAUUGAGCAUCA
B11: chr15:55376998:55377117:-|CDS|ENSG00000260916|unk|FALSE|unique (ssRNA)
RNA: GGGAGUUCUACAGUCCGACGAUCUAUCUAUAUUGGAACUGCCAGUGAUGAUUCUGAUAUUGUUACCCUUGAGCCACCUAAGUUAGAAGAAAUUGGAAAUCAAGAAGUUGUCAUUGUUGAAGAAGCACAGAGUUCAGAAGACUUCAACAGAGGAUUGAGCAUCA
B12: ENSG00000181035:stop:overlap|stop_codon|ENSG00000181035|stop_codon|NA|stop_codon (ssRNA)
RNA: GGGAGUUCUACAGUCCGACGAUCUGGGCAUCAGCUUCACCACCUUCGACCUCAUGCAGAUCCUGCUGCGGCACCUGCAGAGCUAGGGGACCCUGAGCUGCUCUCAGGACGGUGGACCGGUGACCCCUUUGUAUUCUGGGCCCACAACAGAGGAUUGAGCAUCA
B13: ENSG00000104805:stop:overlap|stop_codon|ENSG00000104805|stop_codon|NA|stop_codon (ssRNA)
RNA: GGGAGUUCUACAGUCCGACGAUCAGUUGAAGGAGGUGUGGGAGGAGCUGGAUGGACUGGACCCCAACAGCAUCCCAAAGUGCUAGGAUUACAGGCGUGAGUCACUGCGCCCGGCCUCGAAAGCCCUUUCUCUAUGGUGGAUCACAACAGAGGAUUGAGCAUCA
B14: chr10:63214216:63214317:-|CDS|ENSG00000171988|unk|FALSE|unique (ssRNA)
RNA: GGGAGUUCUACAGUCCGACGAUCUAAGCUGCAUAAGCGAAGUCCACCUCCAGAGACUAUAAAAUCUAAACUUAAUACUUCAGUAGAUACUCACAAGAUAAAAUCCAGCCCAUCACCUGAAGUUGUUAAACCCAAAAUAACUCACAACAGAGGAUUGAGCAUCA

This test deals with MSI1 full-length (mouse, UniProt Q61474 1-362). Description: nsRBNS (natural sequence RNA bind-n-seq); RBNS binding buffer (assumed for nsRBNS): 25 mM Tris pH 7.5, 150 mM KCl, 3 mM MgCl2, 0.01% Triton X-100, 500 ug/ml BSA, 20 U/ml SUPERase-In, 4 C; UNK is unkempt and MSI1 is Musashi-1; names of the RNAs are library labels; protein concentration not given here; high values mean tight binding.
UniProt Q61474, sequence (Q61474 whole entry): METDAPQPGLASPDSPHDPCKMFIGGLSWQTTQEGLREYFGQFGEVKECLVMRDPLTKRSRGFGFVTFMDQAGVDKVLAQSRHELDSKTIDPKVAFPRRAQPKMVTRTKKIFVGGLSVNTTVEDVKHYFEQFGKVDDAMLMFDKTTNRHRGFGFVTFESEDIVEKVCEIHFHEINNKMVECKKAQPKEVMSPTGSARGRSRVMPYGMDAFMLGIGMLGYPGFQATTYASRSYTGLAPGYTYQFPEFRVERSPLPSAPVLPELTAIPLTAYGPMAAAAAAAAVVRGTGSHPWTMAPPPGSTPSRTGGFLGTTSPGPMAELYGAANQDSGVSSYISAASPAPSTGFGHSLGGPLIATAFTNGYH
In the case of B1, the binding signal worked out at 0.364 enrichment R. Molecule B2 showed a binding signal of 0.347 enrichment R. In the case of B3, the binding signal is 1.79 enrichment R. B4 registered a binding signal of 0.65 enrichment R. The molecule B5 showed a binding signal of 0.359 enrichment R. B6: the binding signal worked out at 0.774 enrichment R. The result for B7 reads 0.417 enrichment R; that for B8, 0.776 enrichment R; that for B9, 0.585 enrichment R. Consider B10, for which the binding signal is 0.277 enrichment R. The result for B11 reads 1.68 enrichment R; that for B12, 0.75 enrichment R; that for B13, 0.432 enrichment R. In turn, B14 gave a binding signal of 1.04 enrichment R.
